From the supplement of paper PMC11417369
± gives the standard deviation of the averaged measurements. This is one part of the list.

test system: PfAP2-I AP2 domain 3 (GST-tagged); experiment: gcPBM binding intensity (ln(normalized median fluorescence intensity)); higher = stronger DNA binding
In short: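 Each value is the highest Masliner-normalised natural-log median intensity across replicate spots of either orientation of a probe. The probes were primer-extended double-stranded 36-bp intergenic genomic sequences on an Agilent 4 × 180k array, alongside negative controls, exposed for 1 h to GST-tagged P. falciparum DNA-binding domains expressed in E. coli. Bound protein was picked up with Alexa488 anti-GST antibody and scanned at 488 nm.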

Row | Sequence | gcPBM binding intensity (ln)
1 | CAATCAACAAAACATACACACACATATATATATATA [CACACA_site8979] | 9.26 ± 0.38
2 | TTGTTCCAATAAAATCGTACAATTAAACAACCAAAC [XGTACX_site5759] | 8.29 ± 0.43
3 | TTTTTTTCTATAATACACCAGAAAAAAAAATTAAAA [TGCATGCA_negctrl_site257] | 8.47 ± 0.28
4 | CATATCTCTTATTAATGTACATTTTTAAAAGTAAAT [XGTACX_site2847] | 7.66 ± 0.4
5 | TTTATATAATGGAAAAGTACTCAGGAAATTTATACA [XGTACX_site3635] | 7.79 ± 0.45
6 | CTTTTTTTTATGAACAGTACAGAAATATATATATAC [XGTACX_site5613] | 7.79 ± 0.64
7 | CAAGAACAAAAAATATGTACATATAATTATATATAT [XGTACX_site2082] | 8.16 ± 0.52
8 | ATTGATACATCCAATACACACTACATATAATGATGT [CACACA_site8561] | 7.68 ± 0.52
9 | TTTTTTATATATACATATATATAAATATATATAACT [GTGCAC_negctrl_site385] | 7.45 ± 0.57
10 | ATATTAATAATATATGCATGCATTAACATATTGAAA [TGCATGCA_site951] | 8.12 ± 0.53
11 | GTATGTATGTATATATGTACACATTATTATTTAATG [XGTACX_site5802] | 8.44 ± 0.46
12 | GAGAAAAGGAAATTCACACATATAAAGAAAGATCTA [CACACA_site5420] | 7.39 ± 0.56
13 | TTTTTGTTCTATATGGTGCATGTTTATATTCGTATT | 9.51 ± 0.14
14 | ATTAGCAACATTGATAAATATAAACACACGAAAACA [TGCATGCA_negctrl_site97] | 8.09 ± 0.68
15 | CATGTTTATGCCGTTTGTACATATATATCTAAAAAA [XGTACX_site4336] | 7.99 ± 0.45
16 | CACGTATATATATATACACACACATATATATATGTA [CACACA_site7948] | 8.01 ± 0.46
17 | ATACCATAAATATTGTGTACATAAATATGTTAGTAA [XGTACX_site6077] | 7.92 ± 0.38
18 | TTTTAGAAATTTACTAAACTTTATATAACTATTGAA [TGCATGCA_negctrl_site280] | 7.51 ± 0.47
19 | GTTCATATCTTTTGAGCACACATATATATATATAAA [CACACA_site9099] | 8.53 ± 0.26
20 | ATGATTATAATTTAAAATATTTTACATAACCATTTC [GTGCAC_negctrl_site297] | 7.67 ± 0.59
21 | TTTAGCTATTATAGCTGTACAATGATAAAATAAATT [XGTACX_site6318] | 7.67 ± 0.57
22 | ATAAGTAAAAATAAAAAAAAAATATATATATATATA [CACACA_negctrl_site1816] | 9.35 ± 0.36

Row | Sequence | gcPBM binding intensity (ln)
23 | AATGAATCCTTATATACACACATTATTATATTATAT [CACACA_site3108] | 8.03 ± 0.71
24 | TATTCCTAATTGACAACACACACAACAAAAAAGGGA [CACACA_site8350] | 8.3 ± 0.52
25 | ATTATTAACATATATATACACACGAAAAAATTATAT [CACACA_site625] | 8.01 ± 0.67
26 | TAATGAAATATTATGTGTACTTAAAAATTATTAAAT [XGTACX_site5261] | 7.75 ± 0.42
27 | AGAATTATTTTATGTTTGCACTTTTTTTTTCTATAA [GTGCAC_site9876] | 9.48 ± 0.44
28 | CTATAATATGGTATTACACACTGTTATAAGTATGGC [CACACA_site7068] | 7.78 ± 0.57
29 | TATAAATAGAGACACACACACATATAAATAAATATT [CACACA_site7854] | 7.77 ± 0.49
30 | TATATTTCTTCTATAACATGCAGATATATGAAAATA [TGCATGCA_site971] | 7.89 ± 0.69
31 | ATATATTTTTTGAATACACACATATTATCTGTAATA [CACACA_site4826] | 7.79 ± 0.8
32 | CGAACACAAACACAAACACACATCAGATATAAATAT [CACACA_site6736] | 7.75 ± 0.4
33 | TGTTTGCTTATGTGTTAAATATATATATATATATAT [TGCATGCA_negctrl_site218] | 9.45 ± 0.39
34 | ATTTTAGGAAAAAAAAGTACATATAATTTTTTATAT [XGTACX_site6954] | 7.68 ± 0.27
35 | TTTTTTTTGATATATACACACAATAAATAAATATAA [CACACA_site7400] | 7.78 ± 0.39
36 | ATTTATTATTATATCACACATAATATATTAAATGAT [CACACA_site5821] | 7.62 ± 0.54
37 | AAAAATATAAAAATAGCACACATATATACATATATA [CACACA_site7901] | 7.87 ± 0.3
38 | TATGGAGAAATAAATAGTACGTATTTTATTTAAAAA [XGTACX_site3129] | 7.75 ± 0.6
39 | CTTGCAAAAAGTATATGTACATATATATATATATAT [XGTACX_site5792] | 9.46 ± 0.32
40 | ATGTTCGATGATAAATGTACAAAAATAATGGAAGTA [XGTACX_site1916] | 8.34 ± 0.62
41 | TATAAAAATATTGAAAGTACTTATTAAAATATTATT [XGTACX_site3701] | 7.53 ± 0.41
42 | TTTCCTAGCACATGCACACAAAAAAAAAAAAAAAAA [CACACA_site1404] | 8.6 ± 0.14
43 | AAAAATAAAGAAACAGGTACGCATATATTAAGATAT [XGTACX_site8097] | 7.98 ± 0.78
44 | AATATATTCCACATGTGTACATATATATATATATAT [XGTACX_site8006] | 9.43 ± 0.13

Row | Sequence | gcPBM binding intensity (ln)
45 | TTTCCTTCTACAAAAAATTTTATCAAGAGGAAGTAC [CACACA_negctrl_site926] | 7.89 ± 0.4
46 | CCATAGATATTTTATACACACATATAATATATTAAG [CACACA_site4363] | 7.63 ± 0.49
47 | ATATGCAAAGAGTATAATCAAAATGTAAATAAATAA [GTGCAC_negctrl_site141] | 8.01 ± 0.9
48 | AATATTATTTATATTTGTACACAGTAATATAAAATA [XGTACX_site4884] | 7.63 ± 0.38
49 | TTATAAAGAACACAGACACACAAAGAAAGAACCAAT [CACACA_site4175] | 8.27 ± 0.57
50 | CACAAATAAATACATACACACATATATACTCATATA [CACACA_site4379] | 7.71 ± 0.2
51 | TGGGCGTCATAATGAACACACAATTATATTATGACT [CACACA_site3910] | 7.51 ± 0.51
52 | TTACACAAATAGCTGCATTTATAAAATACAATTAAA [CACACA_negctrl_site241] | 8.01 ± 0.3
53 | AAATATATATATTTACGTACATATATACAAATAGAG [XGTACX_site6067] | 8.38 ± 0.25
54 | TTTTGTCAATTTTAGATTTTTCAATACATGGATATT [CACACA_negctrl_site319] | 7.27 ± 0.64
55 | ATATATATATATTTATGTACGAATATGTTTAATTTA [XGTACX_site3986] | 9.31 ± 0.33
56 | ATATATATAATAATATGTACGGAAAAAGCTTAAGCT [XGTACX_site5661] | 8.17 ± 0.51
57 | AATACATATAAAAGTACACACACACCCATATATATA [CACACA_site8220] | 8.47 ± 0.71
58 | ATAGAATACATATATGAACACACAGAGTTTTAAAAA [CACACA_site8879] | 7.69 ± 0.47
59 | TATATTATATATATGTGTACATATAAATGTAACAAA [XGTACX_site5025] | 7.67 ± 0.34
60 | TTTTTTTTTTGATGTTGTACATATATACTATATAAT [XGTACX_site1332] | 7.92 ± 0.66
61 | GAAAATAAAAAAAATAAAAAAAATAAAAAAAATTAT [XGTACX_negctrl_site443] | 7.54 ± 0.91
62 | TTTTGTAACCTATGCACGCACACAAGAAAAAAACAA [CACACA_site3776] | 9.17 ± 0.042
63 | TAAATATCTAAAGACTGTACAATTAAATATAAACAT [XGTACX_site1450] | 7.72 ± 0.56
64 | AGTTTATTTGTAAAAAGTACATATTTAAGAAAACTT [XGTACX_site2318] | 7.88 ± 0.33
65 | AAATTTGGCAAACACACACACACACCCACACCCACA [CACACA_site8095] | 8.11 ± 0.21
66 | TTCTAACTCTAACAAGTGCAATATATATACATAATA | 10.5 ± 0.18

Row | Sequence | gcPBM binding intensity (ln)
67 | AATATATATCATCACACACACATACATAAATATATA [CACACA_site184] | 8 ± 0.43
68 | AGAGAAAGAAGGGAGAAAAAATAAAATAAAATAAAA [GTGCAC_negctrl_site299] | 7.89 ± 0.65
69 | AATAAAAAAAAACTCATGCACACAATATTATGAAAA [CACACA_site664] | 8.03 ± 0.44
70 | TGCATATGCATTATTTGTACATATGTAGATAATTAT [XGTACX_site6930] | 8.21 ± 0.47
71 | CATATATAGATATATACACACATACATACATACATA [CACACA_site7748] | 7.97 ± 0.81
72 | AAAAATTACAAATACAAACACACAAATGTTTTTCAT [CACACA_site3551] | 7.6 ± 0.42
73 | AATAAAATAAATATATGTACATATATATAACCATTA [XGTACX_site5549] | 7.59 ± 0.38
74 | TTGACATATAAGATATGTACTAATACACACACATAT [XGTACX_site1904] | 7.92 ± 0.42
75 | AAATAATAAAACAACACACAAATAGTTAAAATAGAA [CACACA_site5007] | 7.82 ± 0.54
76 | ACATTCTATATATACACACATACATAATAAAGAAAG [CACACA_site2771] | 8.05 ± 0.45
77 | TTTTAATGATATATGAGTACACATTGTTTTTTATAA [XGTACX_site1072] | 7.86 ± 0.41
78 | ATATAATGATGGAAAAGAAAAGAAATAAAAAAAAAA [CACACA_negctrl_site1170] | 7.82 ± 0.83
79 | AAATGGTAAGAAAATAAATAAAGTTCTACCACATAA [CACACA_negctrl_site1542] | 7.93 ± 0.52
80 | ATATATATATATATATATATATATGTTTGATTTTTT [XGTACX_negctrl_site98] | 9.22 ± 0.49
81 | ATTTTTCTTTTATTAACACACATATAAATAAATACA [CACACA_site2876] | 8.07 ± 0.52
82 | TAGAAAGAATATAATTGTACAAATGTTGATAGATAA [XGTACX_site7259] | 8.07 ± 0.52
83 | TATAAACCATAATTAACACACAAAATAAGTTACATA [CACACA_site3227] | 7.64 ± 0.6
84 | ATAATAATAAAAATTATACATAAGTATATGCACATA [XGTACX_negctrl_site583] | 9.78 ± 0.42
85 | TTTTGCTTTTTTTTTCTTTTTTGTTTTATATATATT [CACACA_negctrl_site103] | 7.5 ± 0.64
86 | ACATATGGTATTTAAACACACAAAAAAGAAAGAAAA [CACACA_site991] | 7.75 ± 0.76
87 | CCACATTAAAAAAAAACACACATATATTATATATAT [CACACA_site1155] | 8.46 ± 0.51
88 | AAAATGACATAATGGGGAATAGACATATACATAAAT [CACACA_negctrl_site1669] | 7.73 ± 0.83
